The values that follow come from article PMC3428324.

Sequences of proteins named here, by UniProt entry; tags and fusion partners are left off.
UniProt P43249: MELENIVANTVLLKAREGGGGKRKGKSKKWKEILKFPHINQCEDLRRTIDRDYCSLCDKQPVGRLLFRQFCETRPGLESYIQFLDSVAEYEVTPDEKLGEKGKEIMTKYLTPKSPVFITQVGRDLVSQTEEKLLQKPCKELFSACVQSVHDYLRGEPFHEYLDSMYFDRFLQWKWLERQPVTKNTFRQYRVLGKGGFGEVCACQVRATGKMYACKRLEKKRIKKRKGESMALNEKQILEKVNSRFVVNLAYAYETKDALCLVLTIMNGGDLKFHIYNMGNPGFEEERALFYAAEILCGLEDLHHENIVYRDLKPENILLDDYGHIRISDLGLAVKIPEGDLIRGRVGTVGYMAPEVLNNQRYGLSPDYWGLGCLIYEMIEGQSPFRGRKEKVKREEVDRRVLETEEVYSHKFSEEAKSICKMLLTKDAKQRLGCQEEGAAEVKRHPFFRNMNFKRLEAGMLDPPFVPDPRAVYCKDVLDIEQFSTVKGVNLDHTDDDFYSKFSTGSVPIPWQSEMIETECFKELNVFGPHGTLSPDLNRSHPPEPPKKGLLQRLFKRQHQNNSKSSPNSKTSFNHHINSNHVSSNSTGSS
UniProt Q16531: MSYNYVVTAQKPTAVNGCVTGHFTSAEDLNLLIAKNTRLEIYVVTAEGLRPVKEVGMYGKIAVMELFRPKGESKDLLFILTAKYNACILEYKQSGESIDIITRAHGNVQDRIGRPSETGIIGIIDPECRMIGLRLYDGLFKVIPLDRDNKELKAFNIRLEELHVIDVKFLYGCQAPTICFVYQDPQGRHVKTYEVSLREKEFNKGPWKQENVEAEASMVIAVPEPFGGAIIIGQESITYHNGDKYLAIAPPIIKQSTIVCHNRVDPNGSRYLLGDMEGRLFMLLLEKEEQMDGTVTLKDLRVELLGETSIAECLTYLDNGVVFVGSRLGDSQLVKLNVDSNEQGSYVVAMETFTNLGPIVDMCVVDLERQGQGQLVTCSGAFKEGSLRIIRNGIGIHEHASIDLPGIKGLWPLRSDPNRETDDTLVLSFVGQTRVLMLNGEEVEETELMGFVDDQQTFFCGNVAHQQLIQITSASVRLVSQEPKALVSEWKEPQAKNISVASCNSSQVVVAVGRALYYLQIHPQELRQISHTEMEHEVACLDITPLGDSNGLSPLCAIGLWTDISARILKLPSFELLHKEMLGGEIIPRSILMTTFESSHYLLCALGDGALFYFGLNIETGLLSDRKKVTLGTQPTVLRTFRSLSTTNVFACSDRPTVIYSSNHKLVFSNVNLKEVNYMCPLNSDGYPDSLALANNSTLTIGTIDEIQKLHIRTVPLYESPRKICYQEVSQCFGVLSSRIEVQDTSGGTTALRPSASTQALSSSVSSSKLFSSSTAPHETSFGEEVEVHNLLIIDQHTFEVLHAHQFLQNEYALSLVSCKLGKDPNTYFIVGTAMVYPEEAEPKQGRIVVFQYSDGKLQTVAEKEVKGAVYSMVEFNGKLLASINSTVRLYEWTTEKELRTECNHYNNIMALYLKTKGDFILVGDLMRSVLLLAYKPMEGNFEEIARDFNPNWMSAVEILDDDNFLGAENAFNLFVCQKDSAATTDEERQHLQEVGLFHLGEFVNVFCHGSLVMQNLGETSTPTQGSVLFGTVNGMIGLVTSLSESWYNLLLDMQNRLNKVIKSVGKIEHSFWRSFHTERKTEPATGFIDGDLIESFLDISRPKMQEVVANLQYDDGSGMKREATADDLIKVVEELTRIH
UniProt P43250: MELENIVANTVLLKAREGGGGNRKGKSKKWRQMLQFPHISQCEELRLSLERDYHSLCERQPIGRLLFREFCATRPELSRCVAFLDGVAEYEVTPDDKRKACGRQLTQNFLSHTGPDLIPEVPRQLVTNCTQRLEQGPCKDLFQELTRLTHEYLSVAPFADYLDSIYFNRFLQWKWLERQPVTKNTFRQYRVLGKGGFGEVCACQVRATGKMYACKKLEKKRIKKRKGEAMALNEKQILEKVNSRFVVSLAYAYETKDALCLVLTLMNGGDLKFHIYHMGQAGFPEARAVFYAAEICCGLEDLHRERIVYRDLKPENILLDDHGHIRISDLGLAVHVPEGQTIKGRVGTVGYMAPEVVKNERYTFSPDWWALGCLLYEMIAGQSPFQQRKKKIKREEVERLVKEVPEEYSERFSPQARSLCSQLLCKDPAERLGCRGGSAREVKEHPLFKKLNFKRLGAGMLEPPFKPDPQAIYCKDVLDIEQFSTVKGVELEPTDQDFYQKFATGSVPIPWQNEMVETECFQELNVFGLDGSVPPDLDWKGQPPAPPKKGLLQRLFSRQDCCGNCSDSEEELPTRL
UniProt P21146: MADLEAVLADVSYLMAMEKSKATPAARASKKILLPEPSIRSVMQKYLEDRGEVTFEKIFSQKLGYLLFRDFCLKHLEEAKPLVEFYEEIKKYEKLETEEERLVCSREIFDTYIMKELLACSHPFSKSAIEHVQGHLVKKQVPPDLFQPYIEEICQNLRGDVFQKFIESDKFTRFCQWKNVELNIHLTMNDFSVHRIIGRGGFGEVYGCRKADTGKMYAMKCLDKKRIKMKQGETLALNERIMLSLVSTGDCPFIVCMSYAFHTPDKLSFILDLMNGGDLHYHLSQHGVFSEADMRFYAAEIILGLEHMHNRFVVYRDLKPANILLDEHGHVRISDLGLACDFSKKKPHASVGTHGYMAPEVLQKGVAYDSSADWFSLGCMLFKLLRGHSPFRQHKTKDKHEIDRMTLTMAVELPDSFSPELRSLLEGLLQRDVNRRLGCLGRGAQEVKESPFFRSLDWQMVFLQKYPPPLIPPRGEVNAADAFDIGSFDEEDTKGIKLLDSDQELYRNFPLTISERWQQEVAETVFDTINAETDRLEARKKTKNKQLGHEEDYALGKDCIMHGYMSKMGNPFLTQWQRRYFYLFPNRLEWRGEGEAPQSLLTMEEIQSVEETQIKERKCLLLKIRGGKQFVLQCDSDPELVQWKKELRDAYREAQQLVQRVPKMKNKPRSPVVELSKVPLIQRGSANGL
UniProt Q92466: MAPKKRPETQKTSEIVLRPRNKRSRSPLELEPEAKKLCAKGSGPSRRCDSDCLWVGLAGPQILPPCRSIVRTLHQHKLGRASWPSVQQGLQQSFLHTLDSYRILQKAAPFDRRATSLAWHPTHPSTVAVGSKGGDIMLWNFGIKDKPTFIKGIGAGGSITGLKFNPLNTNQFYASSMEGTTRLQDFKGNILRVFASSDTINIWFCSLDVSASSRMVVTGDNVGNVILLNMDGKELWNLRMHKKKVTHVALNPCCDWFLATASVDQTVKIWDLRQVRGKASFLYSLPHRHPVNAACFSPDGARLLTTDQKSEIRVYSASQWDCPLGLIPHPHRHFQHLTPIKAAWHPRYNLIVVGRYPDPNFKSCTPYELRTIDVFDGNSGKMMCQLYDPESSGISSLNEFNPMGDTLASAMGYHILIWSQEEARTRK
UniProt P34947: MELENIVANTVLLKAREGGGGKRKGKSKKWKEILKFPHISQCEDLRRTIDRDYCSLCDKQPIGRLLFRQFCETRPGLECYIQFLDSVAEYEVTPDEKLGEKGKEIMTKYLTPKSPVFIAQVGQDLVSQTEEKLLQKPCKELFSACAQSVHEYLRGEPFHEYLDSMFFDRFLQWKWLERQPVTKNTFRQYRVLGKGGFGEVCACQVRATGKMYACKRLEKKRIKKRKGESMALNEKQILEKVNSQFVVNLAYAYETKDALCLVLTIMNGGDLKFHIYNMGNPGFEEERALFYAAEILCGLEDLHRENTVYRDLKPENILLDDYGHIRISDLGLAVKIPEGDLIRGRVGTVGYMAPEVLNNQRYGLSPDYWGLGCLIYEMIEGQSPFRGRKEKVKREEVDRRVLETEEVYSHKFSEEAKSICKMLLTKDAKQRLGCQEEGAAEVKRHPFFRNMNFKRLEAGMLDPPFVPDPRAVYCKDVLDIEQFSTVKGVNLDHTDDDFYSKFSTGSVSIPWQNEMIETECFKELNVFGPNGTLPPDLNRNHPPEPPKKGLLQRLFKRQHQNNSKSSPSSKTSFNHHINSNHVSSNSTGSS
UniProt Q13620: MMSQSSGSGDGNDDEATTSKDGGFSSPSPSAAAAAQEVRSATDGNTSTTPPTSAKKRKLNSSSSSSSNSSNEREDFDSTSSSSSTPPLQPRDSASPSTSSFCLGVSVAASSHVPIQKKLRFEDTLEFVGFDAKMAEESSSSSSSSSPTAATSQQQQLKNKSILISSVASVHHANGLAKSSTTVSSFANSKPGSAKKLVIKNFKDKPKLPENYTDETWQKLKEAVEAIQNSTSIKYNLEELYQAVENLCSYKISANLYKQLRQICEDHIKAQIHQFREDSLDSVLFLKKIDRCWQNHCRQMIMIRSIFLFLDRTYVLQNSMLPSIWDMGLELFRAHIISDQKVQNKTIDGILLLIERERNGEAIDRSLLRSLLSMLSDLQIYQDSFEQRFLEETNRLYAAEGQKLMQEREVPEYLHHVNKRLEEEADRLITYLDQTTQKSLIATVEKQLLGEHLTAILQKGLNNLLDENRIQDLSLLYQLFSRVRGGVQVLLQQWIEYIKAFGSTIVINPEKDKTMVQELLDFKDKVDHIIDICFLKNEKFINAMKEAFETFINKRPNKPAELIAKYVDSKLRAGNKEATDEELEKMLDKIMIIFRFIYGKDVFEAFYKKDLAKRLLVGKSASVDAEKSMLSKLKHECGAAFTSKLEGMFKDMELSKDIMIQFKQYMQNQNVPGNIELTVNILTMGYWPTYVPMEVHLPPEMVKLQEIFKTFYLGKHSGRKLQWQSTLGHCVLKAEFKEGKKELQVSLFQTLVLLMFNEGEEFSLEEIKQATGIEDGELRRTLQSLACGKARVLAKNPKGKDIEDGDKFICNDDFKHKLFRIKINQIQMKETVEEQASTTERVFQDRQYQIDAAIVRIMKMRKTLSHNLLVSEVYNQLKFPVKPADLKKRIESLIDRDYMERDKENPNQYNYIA

In experiment [1] the target is GRK5-Flag (Flag-tagged G protein-coupled receptor kinase 5) (bovine) (UniProt P43249). Kind of experiment: co-IP; lysate of MDA-MB-231 cells stably expressing GFP or GRK5-Flag; anti-FLAG M2 affinity gel, 4°C, 8 h; Western blotting.
For experiment [2] the target is unchanged. Kind of experiment: co-IP; lysates of transiently transfected 293 T cells (in Fig. 3D also with shRNA plasmids against DDB1 or CUL4A); the Flag-tagged protein precipitated with anti-FLAG M2 affinity gel, 4°C, 8 h; Western blotting.
The target of the next experiment is GRK5-HA (bovine) (UniProt P43249). Kind of experiment: co-IP; lysates of transiently co-transfected 293 T cells; the HA-tagged protein precipitated with anti-HA agarose, 4°C, 8 h; Western blotting. In general terms: In western blotting, separated proteins are transferred to a membrane and probed.
The target of the next experiment is DDB1-Flag (UniProt Q16531). Kind of experiment: co-IP; lysates of transiently transfected 293 T cells (in Fig. 3D also with shRNA plasmids against DDB1 or CUL4A); the Flag-tagged protein precipitated with anti-FLAG M2 affinity gel, 4°C, 8 h; Western blotting.
A further experiment deals with GRK6-Flag (human) (UniProt P43250). Described as above.
A further experiment concerns the target GRK2-Flag (bovine) (UniProt P21146). The experiment is described as above.
Experiment [3] concerns the target damaged DNA-binding protein 1 (DDB1), endogenous (human (endogenous in MDA-MB-231, HUVEC and 293 T)) (UniProt Q16531). Kind of experiment: co-IP; endogenous DDB1 complexes precipitated from untransfected 293 T cell lysate with the anti-DDB1 antibody; Western blotting with GRK5 antibody; mouse IgG as control.

Results are given in words; binding and its absence hold for the method and conditions named. Binding seen in cells or lysates may run through a third protein. Some results given as binding are weak or reduced against the parent protein; the word gives no strength.

Regarding “Damage DNA binding protein 2 (DDB2), endogenous (from UniProt Q92466 1-427)”, the binding result in experiment [1] and in experiment [2] was “binds” each time.
For the substance DDB1-Flag (from UniProt Q16531 1-1140), the binding result in the experiment with GRK5-HA (bovine) is “binds”.
With “GRK5 (co-expressed with DDB1-Flag and CUL4A-HA, Fig. 3A and 3B) (from UniProt P43249 1-590) (enzyme)”, the binding entry in the experiment with DDB1-Flag was “binds”.
As to “damaged DNA-binding protein 1 (DDB1), endogenous (from UniProt Q16531 1-1140)”, the binding result is “binds” in experiment [1], “binds” with GRK6-Flag (human), “binds” in experiment [2] and “no binding” with GRK2-Flag (bovine).
For “endogenous GRK5 (from UniProt P34947 1-590) (enzyme)”, in experiment [3], the binding entry is “binds”.
Consider “CUL4B, endogenous (from UniProt Q13620 1-913)”, for which the binding result in experiment [1] and in experiment [2] was “binds” throughout.
